{"source": "patent US20100113379A1", "about": "“cAMP DEPENDENT INDUCTION OF AUTOPHAGY” (priority 2007, published 2010)", "test_system": "stable inducible PC12 cell line expressing A53T α-synuclein", "key": {"[1]": {"conditions": "stable PC12, doxycycline 48 h, switched off 24 h, compounds all 1 μM, DMSO control, FIG. 1"}, "[2]": {"conditions": "cAMP analogues, 1 μM/10 μM listed"}, "[3]": {"conditions": "stable PC12, 24 h, 1 μM rilmenidine, 500 μM 2′5′ ddA, 24 μM forskolin, 1 mM db-cAMP, water control, FIG. 8"}}, "note": "Read-outs that look alike come from different tables or passages of the source.", "data": [{"compound": "Clc1cccc(Cl)c1NC1=NCCN1", "note": "[clonidine, N-(2,6-dichlorophenyl)-4,5-dihydro-1H-imidazol-2-amine]", "values": [{"measurement": "A53T α-synuclein clearance", "setting": "[1]", "value": "enhanced"}]}, {"compound": "calpastatin", "values": [{"measurement": "effect on PACAP-retarded A53T α-synuclein clearance", "setting": "10 nM PACAP with or without 10 μM calpastatin or 500 μM 2′5′ ddA, 24 h, FIG. 17", "value": "not blocked"}]}, {"compound": "PACAP: pituitary adenylate cyclase-activating polypeptide, natural ligand activating Gsα; PACAP 38, Ovine from Calbiochem", "values": [{"measurement": "A53T α-synuclein clearance", "setting": "1 μM or 10 nM PACAP, FIG. 16", "value": "retarded"}]}, {"compound": "CO[C@@H]1[C@@H]2OP(=O)(O)OC[C@H]2O[C@H]1n1c(Sc2ccc(Cl)cc2)nc2c(N)ncnc21", "note": "[8-CPT-2-Me-cAMP, 8-(4-Chlorophenylthio)-2′-0-methyl-cAMP]", "values": [{"measurement": "A53T α-synuclein clearance", "setting": "[2]", "value": "slowed"}]}, {"compound": "CCCCCCOC(=O)[C@]1(O)C[C@@H]2O[C@@]1(C)n1c3ccccc3c3c4c(c5c6ccccc6n2c5c31)C(=O)NC4", "note": "[KT 5720]", "values": [{"measurement": "A53T α-synuclein clearance", "setting": "stable PC12, 1 μM KT5720, 24 h, DMSO control, FIG. 10", "value": "did not enhance"}]}, {"compound": "COC(=O)C1=C(C)NC(C)=C([N+](=O)[O-])C1c1ccccc1C(F)(F)F", "note": "(racemic) [(±)-Bay K8644]", "values": [{"measurement": "A53T α-synuclein clearance", "setting": "[1]", "value": "retarded"}]}, {"compound": "CCCC(=O)Nc1ncnc2c1ncn2[C@@H]1O[C@@H]2COP(=O)(O)O[C@H]2[C@H]1OC(=O)CCC", "note": "[dibutyryl cAMP, N^6,2-O-Dibutyryl-cAMP]", "values": [{"measurement": "A53T α-synuclein clearance", "setting": "[3]", "value": "opposite effects"}]}, {"compound": "rapamycin", "values": [{"measurement": "A53T α-synuclein clearance", "setting": "stable PC12, screen, known autophagy inducers, concentration not given", "value": "enhanced"}]}, {"compound": "O=C(Nc1ncnc2c1ncn2[C@@H]1O[C@@H]2COP(=O)(O)O[C@H]2[C@H]1O)c1ccccc1", "note": "[6-Bnz-cAMP, N^6Benzoyl-cAMP]", "values": [{"measurement": "A53T α-synuclein clearance", "setting": "[2]", "value": "no effects"}]}, {"compound": "C[C@H]1O[C@@H](n2cnc3c(N)ncnc32)C[C@@H]1O", "note": "[2′5′ddA, 2′5′-dideoxyadenosine]", "values": [{"measurement": "A53T α-synuclein clearance", "setting": "[3]", "value": "enhanced"}]}, {"compound": "Nc1cc(N2CCCCC2)nc(N)[n+]1[O-]", "note": "[minoxidil, 6-(1-Piperidinyl)-2,4-pyrimidinediamine 3-oxide]", "values": [{"measurement": "A53T α-synuclein clearance", "setting": "[1]", "value": "enhanced"}]}, {"compound": "C1COC(NC(C2CC2)C2CC2)=N1", "note": "[rilmenidine, 2-[N-(Dicyclopropylmethyl)amino]oxazoline hemifuramate]", "values": [{"measurement": "A53T α-synuclein clearance", "setting": "[3]", "value": "enhance"}]}]}
